The record followed here is ChEMBL document CHEMBL4888484, “Replenishing the malaria drug discovery pipeline: Screening and hit evaluation of the MMV Hit Generation Library 1 (HGL1) against asexual blood stage Plasmodium falciparum ,using a nano luciferase reporter read-out” (2022).

In general, % Inhibition refers to the drop in the measured response relative to a control, in per cent.

In all, about 150,000 compounds went through this assay and about 540 (0.36%) showed an effect of 50% or more. The list shows a part of the results.

The assay concerns Plasmodium falciparum. Kind of assay: Primary screen in NF54 nanoGlo assay, in single point, at 2uM, 72h; a lower Z score goes with more inhibition. In kind it is functional, Erythrocyte. The conditions noted are these: timepoint 72 hour.
Take `N#Cc1cc2ccccc2nc1N1CCO[C@H](c2ccccc2)C1`: the “% Inhibition” value amounted to 7% and the Z score was -0.96.
As to `Cn1c(=O)c2c(ncn2Cc2cc(-c3ccccc3)on2)n(C)c1=O`, the “% Inhibition” value is recorded as -19% and the Z score turned out to be 2.56.
The like results for `CC(C)(NC(=O)c1cncs1)[C@@H]1CCCCO1` were, in that order, -4% and 0.39.
On the same counts, the results for `N#C[C@@H]1C(=O)N=C(N2CCc3ccccc32)NC12CCCCC2` are 9% and -1.15.
The like results for `O=C(Cn1cc(C(F)(F)F)ccc1=O)NC1CC1` were, in that order, -10% and 1.65.
For the molecule `C[C@@H](CCCO)NCc1cc(Br)ccc1Cl`, the “% Inhibition” value is -3% and the Z score is reported as 0.49.
The like results for `COC(=O)NCC(=O)N1CCN(c2ccc3[nH]ncc3c2)C(=O)C1` were, in that order, -10% and 1.95.
As to `CCc1noc(COCC(=O)N2CC(=O)Nc3ccccc32)n1`, the “% Inhibition” value is on record as -1% and the Z score is recorded as 0.18.
The like results for `Cc1cc(N2CC[C@]3(CCOC3)C2)n2ncnc2n1` were, in that order, 5% and -0.66.
The like results for `CCc1nn(C)cc1NC(=O)c1ccc(-c2ccco2)nc1C` were, in that order, -1% and 0.14.
As to `COc1ccc(CCC(=O)Nc2cc(-c3ccn[nH]3)sc2C)cc1`, the “% Inhibition” value is listed as -10% and the Z score was found to be 1.
`Cc1ncc(C)c(N2CCC[C@H](c3nnc(CN4CCC(O)CC4)n3C)C2)n1`: the “% Inhibition” value was found to be 4% and the Z score is -0.52.
On the same counts, the results for `C=C(C)C[C@H](C)C(=O)Nc1ccnc(CO)c1` are -14% and 1.19.
As to `CCCCCOCC(=O)NCc1nc(C(F)(F)F)no1`, the “% Inhibition” value is listed as -14% and the Z score was 1.92.
On the same counts, the results for `Cc1cccc(Nc2nc(C(=O)NCCc3ccco3)nc3ccccc23)c1` are 12% and -2.2.
As to `O=C(Nc1ccc(F)cc1)C1=NCCCN1`, the “% Inhibition” value is on record as -15% and the Z score is listed as 1.95.
The like results for `CCN(CC)C(=O)c1ccc(C)cc1C` were, in that order, -5% and 0.66.
On the same counts, the results for `CCOc1ccccc1NC(=O)Cc1c(C)nc2nc(-c3ccccc3Cl)nn2c1C` are 1% and -0.13.
Regarding `O=C(Nc1ccc2c(c1)OCCO2)N1CCC(F)(C(=O)N2CCOCC2)CC1`, the “% Inhibition” value is recorded as -9% and the Z score stood at 1.21.
On the same counts, the results for `Cn1cnnc1COc1ccc(Cc2ccccc2)cc1` are 2% and -0.2.
The like results for `Cc1ccccc1C(=O)NCc1ccc(-c2ccco2)nc1` were, in that order, -3% and 0.55.
The like results for `CCOC(=O)c1csc(CN2CCOCC2)n1` were, in that order, 8% and -1.06.
Take `CCCc1nc(CN(CC)C(=O)c2cc(F)c(F)cc2Cl)no1`: the “% Inhibition” value was 1% and the Z score is -0.12.
The like results for `Cc1c(Cl)cc(S(=O)(=O)N2CCC(n3ccnc3)CC2)cc1C(=O)O` were, in that order, -11% and 1.9.
Take `COc1ccc(CNCc2cccnc2N2CCCCCCC2)cc1F`: the “% Inhibition” value is on record as -2% and the Z score is given as 0.39.
Regarding `CC1(C)CC(=O)c2cn(-c3ccccc3)c(=O)c(C(=O)N3CCCCCC3)c2C1`, the “% Inhibition” value stood at 1% and the Z score was -0.13.
On the same counts, the results for `Cc1cc(C(=O)NC[C@H]2CCCN(Cc3cncn3C3CCCCC3)C2)c(C)o1` are -11% and 2.24.
On the same counts, the results for `Cc1ccc(C(=O)Nc2ccc(C)c(N3CCCS3(=O)=O)c2)o1` are -25% and 4.78.
On the same counts, the results for `CC(C)C/C=C(\CN1C[C@H](O)[C@@H](N(C)C)C1)c1ccccc1` are 1% and -0.11.
Take `O=C(Nc1[nH]ncc1-c1cccc(Cl)c1)c1cccnc1`: the “% Inhibition” value is listed as 0% and the Z score is -0.09.
As for `Cc1cc(S(=O)(=O)Nc2[nH]nc(C)c2C#N)sc1Cl`, the “% Inhibition” value is 3% and the Z score is on record as -0.3.
For the molecule `COc1ccc(CC(=O)N2CCN(c3cc(C)n4c(C)nnc4n3)CC2)cc1`, the “% Inhibition” value is on record as -14% and the Z score was 1.9.
The like results for `Cc1ccc(F)c(CCNC(=O)c2nc3n(n2)CCCN3)c1` were, in that order, -14% and 2.
Consider `Cn1nc(C(=O)N2CCC[C@H](Oc3cccnn3)C2)ccc1=O`, for which the “% Inhibition” value is 5% and the Z score was -0.53.
The like results for `COCCc1noc(-c2cnc(-c3ccccc3)s2)n1` were, in that order, -15% and 1.9.
On to `CCS(=O)(=O)N1CCC[C@H](c2nnc3n2CCN(C(=O)c2ccco2)C3)C1`, for which the “% Inhibition” value is given as -7% and the Z score came to 1.43.
On to `Cc1ccc(NS(C)(=O)=O)c(N)c1`, for which the “% Inhibition” value was -4% and the Z score was 0.87.
For the molecule `COc1cc2c(cc1OC)[C@H](CNC(=O)c1ccccc1C)N(Cc1cccc(F)c1)CC2`, the “% Inhibition” value is reported as -6% and the Z score came to 0.8.
On the same counts, the results for `Cc1cc(Br)cnc1N(C)CCNS(C)(=O)=O` are -14% and 1.23.
The like results for `CN(Cc1cc(Cl)ccc1F)C(=O)C1CCS(=O)(=O)CC1` were, in that order, -17% and 3.5.
In the case of `COCCN(Cc1ccc(OC)c(OS(=O)(=O)C(C)C)c1)C(=O)CC(C)(C)C`, the “% Inhibition” value came to 1% and the Z score is recorded as -0.18.
On the same counts, the results for `COC(=O)[C@H](CNS(=O)(=O)N1CCCC1)CC(C)C` are -9% and 0.83.
On the same counts, the results for `O=C(Nc1cccnc1)N1CCCCCC1` are 2% and -0.25.
`Cn1nccc1CNS(=O)(=O)c1ccc2ccccc2c1`: the “% Inhibition” value was 0% and the Z score is recorded as -0.04.
As to `CCc1nccn1CCCNC(=O)c1cc(C#N)c[nH]1`, the “% Inhibition” value is on record as -13% and the Z score amounted to 2.46.
On the same counts, the results for `C=CCN1CC(=O)N(c2c(C)cc(C)cc2C)C1=O` are -4% and 0.59.
Consider `COc1cccc(Cl)c1CC(=O)O[C@@H](C)CNS(C)(=O)=O`, for which the “% Inhibition” value is listed as 2% and the Z score is -0.26.
The like results for `CCc1cc(C(=O)Nc2sc3c(c2C#N)CCC3)no1` were, in that order, -8% and 0.96.
The like results for `NC(=O)COC(=O)c1ccc(Cl)cc1` were, in that order, -6% and 1.04.
The like results for `O=C(c1cc(C2CC2)nc2ccccc12)N(CCO)C1CCCCC1` were, in that order, -15% and 1.66.
With `CC(=O)N[C@H]1C[C@H](c2nnc(COc3c(F)ccc(C)c3Cl)n2C)C1`, the “% Inhibition” value is -7% and the Z score amounted to 0.75.
Consider `CN(C)C[C@H]1CN(C(=O)NCC(C)(C)c2ccccn2)CCO1`, for which the “% Inhibition” value is -1% and the Z score was found to be 0.11.
On the same counts, the results for `O=C(NCc1ccncc1)[C@H]1CC(=O)N(Cc2cc(C(F)(F)F)cc(C(F)(F)F)c2)C1` are 3% and -0.48.
The like results for `Cc1noc(CNC(=O)CC[C@@H]2C(=O)Nc3ccccc32)n1` were, in that order, -11% and 1.34.
On to `CCC(NC(=O)C1OCCC1C)(C(N)=O)C(C)C` (centres undefined), for which the “% Inhibition” value was -12% and the Z score is recorded as 1.38.
On the same counts, the results for `O=C(CN1CCC(Cn2c(C(F)(F)F)nc3ccccc32)CC1)N1CCc2ccccc21` are 4% and -0.46.
On the same counts, the results for `COc1ccccc1-c1cc2c(n(Cc3ccccc3)c1=O)CCN(C(=O)CCc1cnccn1)C2` are -17% and 2.25.
On to `CCN=C(NCC)NCc1ccnc(C2CC2)c1`, for which the “% Inhibition” value was -14% and the Z score is 1.95.
The like results for `CCCO[C@H]1CCCN(Cc2cc(C(=O)O)co2)CC1` were, in that order, 3% and -0.52.
The like results for `CCN1CC2(CCN(Cc3ccc(OCC(N)=O)c(Cl)c3)CC2)OC1=O` were, in that order, -1% and 0.16.
The like results for `COc1ccc(N(C(=O)C2CC2C)C2CCS(=O)(=O)C2)cc1` (centres undefined) were, in that order, -11% and 1.04.
As for `O=C(Nc1ccc2c(c1)NCCC2)c1ccoc1`, the “% Inhibition” value was -9% and the Z score stood at 1.37.
`CN(C)S(=O)(=O)N1CCOC[C@H]1c1ncnn1-c1ccccc1`: the “% Inhibition” value is recorded as -2% and the Z score is recorded as 0.3.
Take `Cc1cc(C)c(CN2CCC(CCC(=O)N3CCOCC3)CC2)cc1C`: the “% Inhibition” value is -8% and the Z score is reported as 0.7.
The like results for `Cc1cccc(N2CCN(S(=O)(=O)c3ccc4c(c3)C(C)(C)C(=O)N4C)C[C@@H]2C)c1` were, in that order, -13% and 1.7.
The like results for `CCn1nc(NC(=O)c2ccc(CN3C[C@H]4CC[C@H]3C4)cc2)cc1C` were, in that order, -2% and 0.32.
On the same counts, the results for `Cc1ccccc1NC(=O)c1cccc(S(=O)(=O)NCC2(C)COC2)c1` are 9% and -1.6.
Regarding `CC(C)c1nnc2n1[C@](C)(C(=O)NCc1cccnc1)COC2`, the “% Inhibition” value is recorded as -2% and the Z score is 0.31.
With `O=C(CC1CCCC1)N1CC(OCC(F)(F)F)C1`, the “% Inhibition” value is on record as 13% and the Z score is reported as -1.96.
For `O=C(NC1CC1)c1cc2n(n1)CCCN(Cc1ccc(F)cc1)C2=O`, the “% Inhibition” value is recorded as -6% and the Z score is listed as 0.73.
On the same counts, the results for `O=C(CCN1C(=O)CCC1=O)NC1(Cc2ccc(Br)cc2)CCCCC1` are -1% and 0.21.
The like results for `O=C(Nc1ccccc1Cl)N1Cc2cccn2-c2ccccc21` were, in that order, -2% and 0.25.
With `CN(C)c1cccc(C(=O)Nc2cc(-c3ccccn3)no2)c1`, the “% Inhibition” value was -15% and the Z score was found to be 2.36.
The like results for `CN(CC1(c2ccc(Br)cc2)CC1)C(=O)Cc1ccn[nH]1` were, in that order, 4% and -0.41.
On the same counts, the results for `COC(=O)N[C@@H](C)C(=O)N1CCC(c2nccn2CC2CC2)CC1` are -5% and 1.03.
On to `Cc1ocnc1C(=O)NCC1(C)COC1`, for which the “% Inhibition” value was determined as 17% and the Z score is reported as -1.95.
The like results for `O=S(=O)(c1ccc2c(c1)OCCO2)c1nc(-c2ccccc2Cl)oc1NCc1cccnc1` were, in that order, -3% and 0.33.
In the case of `O=C(NC[C@H]1CCCO1)c1csc(COc2cc(Cl)ccc2Cl)n1`, the “% Inhibition” value was -11% and the Z score is 1.48.
On the same counts, the results for `CCCN(CCC)C(=O)c1coc(CN2CCN(C[C@H](O)CN3CCOCC3)CC2)n1` are -12% and 1.66.
The like results for `O=C(NCCOCC(F)(F)F)[C@H]1CC[C@@H](Nc2ccccn2)CC1` were, in that order, 0% and 0.06.
With `O=C(NCCc1c[nH]c2ccccc12)[C@@H]1CNC[C@H](C(=O)Nc2ccc(F)cc2)C1`, the “% Inhibition” value is -23% and the Z score was 2.7.
For the molecule `CCS(=O)(=O)N1CCc2nc(N3CCC(C)CC3)nc(Oc3ccc(F)cc3)c2C1`, the “% Inhibition” value is -3% and the Z score was 0.51.
As for `CCN1CCN(c2nccc(-c3cnc4nc(-c5ccncc5)nn4c3C)n2)CC1`, the “% Inhibition” value is listed as -8% and the Z score amounted to 1.17.
Regarding `CC(NC1CCNC1=O)c1ccc(S(C)(=O)=O)c(F)c1` (centres undefined), the “% Inhibition” value is recorded as -3% and the Z score is 0.27.
The like results for `CC[C@@H]1C(=O)N(c2nc(-c3ccc(OC)cc3)cs2)N=C1C` were, in that order, -9% and 1.61.
The like results for `CN(C)C(=O)[C@H](OC(=O)c1ccc2cn[nH]c2c1)c1ccccc1` were, in that order, -14% and 2.71.
For the molecule `CCn1nccc1C(=O)N1CCC2(CC1)C[C@@H]2NC(=O)c1ccccc1`, the “% Inhibition” value is recorded as -1% and the Z score was 0.06.
